The results in this text go back to PubChem BioAssay AID485344 (National Center for Advancing Translational Sciences (NCATS), 2010).

In all, about 340,000 compounds went through this assay and about 6,900 (2%) were called active. Cut-off read from the data, not from the text of the source: active = inhibition above about 30%; inactive = below that, where a call was filed. The list shows a part of the results, in another mix than the full data. The source gives no active or inactive call for entries shown without one.

UniProt P14416, sequence (P14416 whole entry, looked up): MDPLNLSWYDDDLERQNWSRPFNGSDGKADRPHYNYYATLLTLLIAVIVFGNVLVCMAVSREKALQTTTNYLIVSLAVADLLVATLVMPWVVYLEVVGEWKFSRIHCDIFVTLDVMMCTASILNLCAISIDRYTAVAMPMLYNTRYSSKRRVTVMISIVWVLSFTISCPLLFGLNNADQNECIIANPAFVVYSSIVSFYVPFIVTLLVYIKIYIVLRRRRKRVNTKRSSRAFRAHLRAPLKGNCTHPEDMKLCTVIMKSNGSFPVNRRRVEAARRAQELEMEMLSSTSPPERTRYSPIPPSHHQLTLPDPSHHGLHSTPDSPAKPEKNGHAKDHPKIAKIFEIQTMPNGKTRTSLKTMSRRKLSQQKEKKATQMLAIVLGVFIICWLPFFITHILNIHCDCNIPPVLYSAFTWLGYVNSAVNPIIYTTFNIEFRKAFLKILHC

For this experiment, the target named is D(2) dopamine receptor (Homo sapiens) (UniProt P14416). As to the kind of experiment: HTS Assay for Allosteric Antagonists of the Human D2 Dopamine Receptor: Primary Screen for Antagonists. Note: 0% is about no effect. As to conditions: HEK293 TREx D2 cells, calcium flux, dopamine EC80; at 10 µM; stronger effect = higher value. A digest of the protocol:
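Dopamine at EC80 is the agonist stimulus; test compounds precede it by 180 s. Calcium flux read kinetically in a force-coupled, inducible HEK293 T-REx D2 cell line.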
(Calcium flux is commonly read through the fluorescence of an indicator in the cells.)
In general, inhibition refers to the change of the read-out against control, counted positive when it falls. For `COc1cccc(NC(=O)c2sc3nc(C)c(C(=O)Nc4ccc(Cl)cc4)c(-c4ccc(Br)cc4)c3c2N)c1`, the inhibition is -15.3%.
As to `Cc1cccc(NC(=O)c2sc3nc(-c4ccccc4)cn3c2C)c1C`, the inhibition is -13.1%.
Consider `CCc1ccc(NC(=O)C2CCC(CNS(=O)(=O)c3ccc4c(c3)C(C)(C)C(=O)N4C)CC2)cc1` (stereo not given), for which the inhibition was 2.61%.
As to `COc1ccc2c(CNCc3ccccc3OC)c(C(=O)O)n(Cc3ccc(F)cc3Cl)c2c1`, the inhibition is -2.3%.
The figure for `COc1ccc(C)cc1NC(=O)c1cc(S(=O)(=O)N2CCC(C)CC2)cn1C` is 2.37%.
The figure for `Cc1cccc(N2CCN(C(=O)c3c(C)oc4ncnc(N5CCOCC5)c34)CC2)c1C` is 2.07%; for `Nc1cc(=O)nc(SCC(=O)Nc2ccc(F)cc2)n1-c1cccc(Cl)c1` it is 21.8%.
On to `Cc1nn(C(=O)COc2ccccc2Br)c(C)c1Sc1ccccc1`, for which the inhibition was -12.6%.
Turning to `COc1ccc(CCN2C(=O)N(c3ccc(C)cc3)C(=O)C2CC(=O)Nc2ccc(F)cc2)cc1` (stereo not given), the inhibition was -28.2%.
In the case of `CCc1ccc(NC(=O)C(NS(=O)(=O)c2cccc3nsnc23)c2ccccc2)cc1` (stereo not given) it was 4.29%.
As for `COc1ccc(CN2C(=O)N(c3ccc(F)cc3)C(=O)C2CC(=O)Nc2cc(OC)cc(OC)c2)cc1` (stereo not given), the inhibition was 9.15%.
The figure for `CC(=O)c1c(C)oc2ccc(N(C(=O)Oc3ccccc3)S(=O)(=O)c3ccccc3)cc12` is 2.91%; for `Cc1ccc(S(=O)(=O)c2c(Nc3cc(C)ccc3C)sc(C(=O)c3ccc4c(c3)OCO4)c2N)cc1` it is 24.3%; for `CC(CNC(=O)c1cc(-c2ccccc2)n[nH]1)c1ccccc1` (stereo not given) it is -5.86%.
For `CC1CCCN(c2c(S(=O)(=O)c3ccccc3)cnc3ccc(Cl)cc23)C1` (stereo not given), the inhibition worked out at 17.4%.
In the case of `Cc1ccc(Cl)cc1NC(=O)N1CCC2(CC1)Oc1ccccc1C(=O)N2Cc1ccccc1F` it was 6.32%; in that of `CCS(=O)(=O)N1CC(=O)N(c2cc(C)ccc2C)C(C)(C(=O)NC2CCCCC2)C1` (stereo not given), -13.7%.
The figure for `COc1ccc(-n2nnc(-c3nsc(NC(=O)c4cccs4)n3)c2C)cc1OC` is 14.2%; for `Cc1c(Cl)cccc1NC(=O)C(CCS(C)(=O)=O)N1Cc2ccccc2C1=O` (stereo not given) it is -5.27%.
The figure for `Cc1cccc(NC(=O)C(=O)NCCc2sc(-c3ccccc3)nc2C)c1C` is -6.11%; for `COc1ccc(-c2cn3c(n2)sc2cc(C(=O)NC4CCCCCC4)ccc23)cc1` it is -7.48%; for `CC1C(=O)Nc2ccc(S(=O)(=O)NCc3ccc(N(C)C)cc3)cc2NC1=O` (stereo not given) it is 25.1%.
Turning to `COc1ccc(OCCn2c(C(C)Oc3ccccc3)nc3ccccc32)cc1` (stereo not given), the inhibition was -6.96%.
The figure for `CCN(CC)S(=O)(=O)c1ccc2c(c1)nc(CN(C)C(=O)Nc1cccc(Cl)c1)n2C` is 5.2%; for `COc1cccc(C(=O)c2cn(CC(=O)Nc3cccc(C(F)(F)F)c3)c3nc(C)ccc3c2=O)c1` it is -5.45%.
In the case of `CC(=O)N1CCc2cc(S(=O)(=O)NC(CC(C)C)C(=O)NCCc3ccc(C)cc3)ccc21` (stereo not given) it was -10.1%; in that of `CCCN(CCC)C(=O)CN1C(=O)CSc2ccc(S(=O)(=O)N3CCC(C)CC3)cc21`, 1.65%; in that of `COc1ccc(Cn2c(CCC(=O)Nc3ccc(C)c(C)c3)nc3cccnc32)cc1`, 11.9%.
In the case of `CCOc1ccc2nc(N3CCCC(C(=O)NCCCOC)C3)sc2c1` (stereo not given) it was -3.6%; in that of `Cc1nc2nc(NCc3cccc(Cl)c3)[nH]n2c(=O)c1Cc1ccccc1`, -0.325%; in that of `COc1ccc(-c2cc3ccc(O)c(CN4CCCC(C)C4)c3oc2=O)cc1` (stereo not given), -0.0166%.
Turning to `CCOc1ccc(CCNC(=O)Cn2c(=O)c3cccn3c3ccc(F)cc32)cc1OCC`, the inhibition was 10%.
In the case of `COC(=O)c1ccc(Cn2c(SCc3ccccc3F)nc3ccncc32)cc1` it was -7.92%; in that of `Cc1ccc(NCC(=O)N/N=C/c2ccncc2)cc1`, active: 49.3%.
The figure for `CCN1CCc2nc3sc(C(=O)c4ccccc4)c(N)c3cc2C1` is -11.2%.
The figure for `CC(CNC(=O)c1ccc(CSc2nc3ccncc3n2Cc2ccc(F)cc2)cc1)c1ccccc1` (stereo not given) is 5.34%.
Take `COc1ccccc1NC(=S)NC(=O)Cc1ccc(Cl)cc1`: the inhibition is active: 52.3%.
For `CN(C)Cc1nc2c(c(=O)[nH]1)C1(CCCCC1)Cc1ccccc1-2`, the inhibition was active: 36.9%.
Consider `Cc1ccc(CNC(=O)C2CCCCN2S(=O)(=O)c2ccc(F)cc2)cc1` (stereo not given), for which the inhibition worked out at 6.02%.
The figure for `COc1ccc(CNC(=O)C2CCN(S(=O)(=O)c3ccc(F)cc3)CC2)cc1` is -8.74%; for `Cc1ccc(NC(=O)CSc2nc(-c3ccc(C(C)(C)C)cc3)nc3cc(=O)[nH]n23)cc1C` it is -3.51%.
In the case of `O=C(Cc1ccccc1)N[C@@H](Cc1ccc(O)cc1)C(=O)O` it was active: 36%; in that of `COCCNC(=O)CSc1nc2cc3c(cc2c(=O)n1CCCC(=O)NCc1ccc(OC)cc1)OCO3`, 7.99%; in that of `COC(=O)c1cc(S(=O)(=O)NCC2CCN(Cc3ccc(F)cc3)CC2)c[nH]1`, -2.19%.
As for `COCCNC(=O)c1ccc2c(c1)N(Cc1cc(C)ccc1C)C(=O)c1ccccc1S2(=O)=O`, the inhibition was found to be 11.3%.
In the case of `COc1ccc(S(=O)(=O)N2CCN(c3ccc(Cl)c(Cl)c3)CC2)c2ccccc12` it was -5.79%; in that of `Cc1cc(NCc2ccccc2Cl)n2cnnc2n1`, 8.89%; in that of `Cc1ccc(NC(=O)CSc2nc3ccccc3nc2Cc2ccccc2)c(C)c1`, -17.6%.
In the case of `CCOc1ccc(Cn2c(-c3ccc(OCC)c(OC)c3)nc3ccccc32)cc1OC` it was -8.93%.
`CCCN(CCC)CCNC(=O)Cn1cc2c(n1)-c1c(oc(C(=O)N3CCCC3)c1C)CC2`: the inhibition stood at 4.3%.
The figure for `Cc1cccc(-c2nnn3c2nc(NCCc2ccc(S(N)(=O)=O)cc2)c2ccccc23)c1` is -9.88%; for `COc1ccc(OC)c(NC(=O)CSc2cn(CC(=O)N3CCCCCC3)c3ccccc23)c1` it is 0.913%; for `O=C(CS(=O)(=O)c1cccc2nsnc12)Nc1ccc(F)cc1` it is -2.81%.
In the case of `COC(=O)c1ccc(CN2CCCCC2)cc1` it was active: 35.2%; in that of `CCc1ccc(NC(=O)CN2C(=O)C(c3ccc(F)cc3)=NC2(C)C)cc1`, 2.35%; in that of `CCOC(=O)c1ccc(NC(=O)CSc2nc3ccccc3c(=O)n2CCNC(C)=O)cc1`, 14.7%.
The figure for `Cc1ccc(CCNC(=O)Cn2ncc3c([nH]c4ccc(C)cc43)c2=O)cc1` is -1.31%; for `CCCCOc1ccc(Cn2c(=O)oc3ccc(C)cc32)cc1` it is -9.22%.
On to `COc1ccc(C)cc1NC(=O)CNC(c1ccccc1)c1ccccc1`, for which the inhibition was active: 37.2%.
Regarding `COc1ccc(C)cc1NC(=O)C1CCN(S(=O)(=O)c2ccc3c(c2)CCCN3C(C)=O)CC1`, the inhibition is -2.12%.
`O=C(Nc1ccc(N2CCN(c3ccc(F)cc3)CC2)c(C(=O)O)c1)c1ccccc1F`: the inhibition turned out to be 7.68%.
The figure for `CC1=C(C(=O)Nc2cccnc2)C(c2ccccc2)n2nc(SCc3ccccc3Cl)nc2N1` (stereo not given) is -3.03%; for `CCOc1ccc(CNC(=O)CCCn2nc(C)c3sc4ccccc4c3c2=O)cc1` it is 10.7%.
The figure for `COC(=O)c1cc(S(=O)(=O)NCC2CCN(Cc3ccc(C)cc3)CC2)cn1C` is 10.5%.
With `Cc1cccc(NS(=O)(=O)c2ccc3c(c2)[C@H]2C=CC[C@H]2[C@@H](c2ccc(F)cc2)N3)c1`, the inhibition was -16.1%.
The figure for `CCc1ccc(C(=O)c2cn(CC(=O)Nc3cc(OC)ccc3OC)c3ccc(C)cc3c2=O)cc1` is -17.5%.
In the case of `CCCOc1ccc(-c2nn(-c3ccccc3)cc2C2NC(=O)NC(C)=C2C(=O)OC)cc1` (stereo not given) it was 10.3%; in that of `COc1cc(C(=O)OCCn2c(=O)c3c(ncn3CCN(C)C)n(C)c2=O)cc(OC)c1OC`, active: 33.8%; in that of `CCOc1ccccc1NC(=O)c1c(NCc2ccc(C)o2)sc2c1CCC(C)C2` (stereo not given), 22.3%.
In the case of `COc1ccc(CCNC(=O)Cn2nc(C)n3c(cc4cc(F)ccc43)c2=O)cc1OC` it was 0.186%; in that of `COc1ccc(S(=O)(=O)Nc2ccc3oc4c(c3c2)C(=O)CC(C)(C)C4)cc1`, -9.8%.
Consider `COc1ccccc1CN1CCc2c([nH]c3ccccc23)C1`, for which the inhibition was active: 52.6%.
Turning to `Cc1ccc(C)c(N2CCN(C(=O)c3cc4c(=O)n(Cc5ccco5)ccc4nc3C)CC2)c1`, the inhibition amounted to 1.15%.
In the case of `CCCCN(C)C(=O)Cn1c(C2CC(=O)N(c3ccc(C)cc3)C2)nc2ccccc21` (stereo not given) it was -14.7%.
As to `COc1ccc(NC(=O)CSC2=Nc3ccccc3C3=NC(CCC(=O)NCc4ccc(F)cc4)C(=O)N23)cc1Cl` (stereo not given), the inhibition is -6.42%.
In the case of `CCOC(=O)c1ccc(NC(=O)CC2Sc3ccc(C(F)(F)F)cc3NC2=O)cc1` (stereo not given) it was 3.78%; in that of `Cc1nn(C)c2c1c(-c1ccccc1)cc(=O)n2Cc1ccccc1Cl`, -7.33%; in that of `COc1cccc(N2CCN(C(=O)C3CCN(S(=O)(=O)c4cccc5nonc45)CC3)CC2)c1`, -15.6%.
The figure for `Cc1ccc(CN(C(=O)COc2ccc(Cl)cc2)c2ccccn2)o1` is -1.37%.
In the case of `Cc1cc(NC(=O)CCNS(=O)(=O)c2ccc3c(c2)CCCC(=O)N3)ccc1Br` it was -2.74%; in that of `CS(=O)(=O)N(CC(=O)Nc1ccc(Br)cc1)c1ccccc1Br`, 8.64%.
Consider `CCN(CC)CCOc1cccc(C(C)C)c1`, for which the inhibition was active: 72.8%.
The figure for `COc1ccc(-c2nc(CCNC(=O)c3cccs3)cs2)cc1` is 12.2%; for `CCOc1ccc(N(C(=O)c2ccccc2F)S(=O)(=O)c2ccc3c(c2)n(C)c(=O)n3C)cc1` it is -18.7%; for `Cc1ccc(C(=O)CCC(=O)Nc2ccc(C)cc2C)cc1` it is 7.25%.
In the case of `CCc1ccccc1NC(=O)N1CCC(CN2CCc3ccccc3C2)CC1` it was -22.6%; in that of `CC1CCN(S(=O)(=O)c2ccc3c(ccc(=O)n3CC(=O)Nc3ccc(C(C)C)cc3)c2)CC1`, 4.83%.
In the case of `COc1ccc(S(=O)(=O)N(CC(=O)NCc2ccncc2)c2ccc(C)cc2)cc1Br` it was active: 33.3%; in that of `Nc1nc(SCC(=O)Nc2cccc(C(F)(F)F)c2)n[nH]1`, -11.2%.
In the case of `Clc1ccc(CN2CCN(c3ccccc3)CC2)cn1`, the inhibition was active: 89.9%.
The figure for `CCOC(=O)c1c(-c2ccc(C)cc2)csc1NC(=O)c1cc(-c2ccc(Cl)cc2)on1` is 0.66%.
In the case of `COc1cccc(-n2c(=O)c3c(C)c(C)sc3n(CC(=O)Nc3ccccc3OC)c2=O)c1` it was 24.8%; in that of `Cc1ccccc1CC1C(=O)Nc2ccc(Br)cc21` (stereo not given), 6.17%; in that of `CCc1ccc(CNCc2c(C(=O)O)c(C)n(Cc3c(F)cccc3Cl)c2C)cc1`, -1.79%.
Take `CCOc1cccc(C(=O)N(Cc2ccc(N(C)C)cc2)CC2CCCO2)c1` (stereo not given): the inhibition stood at 2.05%.
